These results are taken from PMC4336329 (PLoS ONE, 2015).

In all, about 310,000 compounds went through this assay and about 14,000 (4.5%) showed an effect of 50% or more. Effects have a minus sign here. Some of the results follow.
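Note: peak tail current of the secondary pulse compared with the same well before compound.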

Sequence of human ether-à-go-go-related gene (hERG) potassium channel (Q12809 whole entry, looked up): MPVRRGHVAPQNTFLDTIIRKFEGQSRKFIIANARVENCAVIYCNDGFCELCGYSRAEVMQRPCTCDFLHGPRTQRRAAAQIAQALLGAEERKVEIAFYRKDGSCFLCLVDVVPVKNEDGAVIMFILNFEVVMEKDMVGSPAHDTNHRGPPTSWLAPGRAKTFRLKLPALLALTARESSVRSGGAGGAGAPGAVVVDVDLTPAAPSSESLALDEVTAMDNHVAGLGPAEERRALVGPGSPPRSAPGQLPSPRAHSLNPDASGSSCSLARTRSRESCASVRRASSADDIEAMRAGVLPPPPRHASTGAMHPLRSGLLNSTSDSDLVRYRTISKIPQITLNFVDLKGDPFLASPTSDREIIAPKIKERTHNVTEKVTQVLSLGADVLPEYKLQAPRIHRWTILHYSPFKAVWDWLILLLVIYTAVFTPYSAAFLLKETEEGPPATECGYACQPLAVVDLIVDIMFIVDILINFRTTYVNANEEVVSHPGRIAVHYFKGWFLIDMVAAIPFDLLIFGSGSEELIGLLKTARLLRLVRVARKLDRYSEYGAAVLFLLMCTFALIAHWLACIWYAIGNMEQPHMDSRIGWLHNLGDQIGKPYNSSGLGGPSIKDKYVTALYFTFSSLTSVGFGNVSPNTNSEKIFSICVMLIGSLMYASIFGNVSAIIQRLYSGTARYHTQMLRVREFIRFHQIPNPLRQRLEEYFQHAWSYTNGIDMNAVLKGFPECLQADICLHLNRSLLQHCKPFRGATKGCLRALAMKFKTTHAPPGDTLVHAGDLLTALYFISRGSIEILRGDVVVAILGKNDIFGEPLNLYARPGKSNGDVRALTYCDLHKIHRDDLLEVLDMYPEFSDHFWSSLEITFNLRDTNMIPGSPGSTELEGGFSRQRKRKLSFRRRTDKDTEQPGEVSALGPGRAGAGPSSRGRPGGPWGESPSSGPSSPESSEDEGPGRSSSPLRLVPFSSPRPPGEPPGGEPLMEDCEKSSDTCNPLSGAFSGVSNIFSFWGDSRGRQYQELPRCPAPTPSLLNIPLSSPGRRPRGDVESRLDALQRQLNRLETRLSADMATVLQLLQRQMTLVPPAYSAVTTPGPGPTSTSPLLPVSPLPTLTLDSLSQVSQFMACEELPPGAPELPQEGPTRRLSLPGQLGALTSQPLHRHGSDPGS

This assay has as its target human ether-à-go-go-related gene (hERG) potassium channel (human, UniProt Q12809). The assay is described as follows: primary screen, population patch clamp on CHO cells stably expressing hERG.
Take `COc1cc2cc(C)c(SCC(=O)N3CCN(C(=O)c4ccco4)CC3)nc2cc1OC`: the “hERG current change (%, negative = inhibition) at 10uM” value is given as -66%.

With `Cn1ncc(C#N)c1NC(=O)C1CC(c2c(F)cccc2Cl)=NO1` (centres unmarked), the “hERG current change (%, negative = inhibition) at 10uM” value was -0.534%.

In the case of `COc1ccc(-n2nc(C(=O)NCC(=O)N3CCCC(C)C3)c3ccccc3c2=O)cc1` (centres unmarked), the “hERG current change (%, negative = inhibition) at 10uM” value turned out to be 17.8%.

As for `CC(NC(=O)C(C)N1c2cccc3cccc(c23)S1(=O)=O)c1ccccc1` (centres unmarked), the “hERG current change (%, negative = inhibition) at 10uM” value was found to be 25.8%.

For `CCOc1ccccc1OCC(=O)Nc1nnc(COC)s1`, the “hERG current change (%, negative = inhibition) at 10uM” value is recorded as -13.7%.

For the molecule `CC(=O)Nc1cc(C(=O)OCC(=O)c2ccc(Cl)cc2Cl)ccc1C`, the “hERG current change (%, negative = inhibition) at 10uM” value is 17.5%.

Take `CC(C)(CN1CCc2ccccc2C1)NS(=O)(=O)c1ccc(Cl)cc1`: the “hERG current change (%, negative = inhibition) at 10uM” value is recorded as -38.9%.

Turning to `CCCCN(C(=O)Cc1coc2cc(C)c(C)cc12)c1c(N)n(Cc2ccccc2)c(=O)[nH]c1=O`, the “hERG current change (%, negative = inhibition) at 10uM” value is recorded as -23.6%.

As to `O=C(Cn1nc(CNc2ccc(Cl)cc2)[n+]2c1CCCCC2)c1ccc(Cl)cc1.[Br-]`, the “hERG current change (%, negative = inhibition) at 10uM” value is given as -8.17%.

Turning to `Cc1cccc(-n2nnc(C(=O)NC3CCCc4ccccc43)c2N)c1` (centres unmarked), the “hERG current change (%, negative = inhibition) at 10uM” value is 6.92%.

As for `Cc1ccc(C)n1-c1cccc(C(=O)O)c1`, the “hERG current change (%, negative = inhibition) at 10uM” value came out at 0.363%.

Turning to `CC(=O)NC(CC(=O)NNC(=O)C(C)Oc1ccccc1F)c1ccccc1` (centres unmarked), the “hERG current change (%, negative = inhibition) at 10uM” value turned out to be 7.84%.

Consider `Cc1ccc(S(=O)(=O)Nc2ccccc2CNc2c(C)n(C)n(-c3ccccc3)c2=O)cc1`, for which the “hERG current change (%, negative = inhibition) at 10uM” value is given as -30.7%.

Turning to `C/C(=N\NC(=O)Cc1ccc(Cl)cc1)c1cccc(NC(=O)c2cccnc2)c1`, the “hERG current change (%, negative = inhibition) at 10uM” value was found to be 7.49%.

For the molecule `Cc1ccc(S(=O)(=O)N2CCCSCC2)cc1`, the “hERG current change (%, negative = inhibition) at 10uM” value worked out at 1.89%.

For `Cc1cccc(N2CCN(CCNC(=O)c3cc4c(s3)CS(=O)(=O)C4)CC2)c1C`, the “hERG current change (%, negative = inhibition) at 10uM” value is -45.2%.

For the molecule `OCC(Cl)CCl` (centres unmarked), the “hERG current change (%, negative = inhibition) at 10uM” value is given as -3.16%.

Take `CCOc1ccc(CN(C)CC(=O)NNC(=O)c2ccc(Cl)cc2)cc1OC`: the “hERG current change (%, negative = inhibition) at 10uM” value was -60.3%.

Regarding `N#CC(C(=O)NC1CC1)c1nc2ccccc2nc1N1CCN(C/C=C/c2ccccc2)CC1` (centres unmarked), the “hERG current change (%, negative = inhibition) at 10uM” value is -58.9%.

Regarding `O=C(OCc1c(Cl)cccc1Cl)c1cccnc1Cl`, the “hERG current change (%, negative = inhibition) at 10uM” value was 0.492%.

With `CCn1c(SCc2ccccc2F)nnc1-c1ccncc1`, the “hERG current change (%, negative = inhibition) at 10uM” value is listed as -6.25%.

Consider `Cc1ccc(-c2nnn3c2nc(NC(C)C)c2ccccc23)cc1`, for which the “hERG current change (%, negative = inhibition) at 10uM” value was 7.17%.

For `CN1CCN(C(=O)c2cc(Cl)ccc2NC(=O)c2ccc(Cl)cc2Cl)CC1`, the “hERG current change (%, negative = inhibition) at 10uM” value is on record as -7.99%.

On to `CCN(CC)C(=O)Cn1cc(S(=O)(=O)CC(=O)Nc2ccccc2F)c2ccccc21`, for which the “hERG current change (%, negative = inhibition) at 10uM” value is listed as -17.5%.

In the case of `Cc1ccc(SCc2cc(=O)[nH]c(Nc3nc(C)c4cccc(C)c4n3)n2)cc1`, the “hERG current change (%, negative = inhibition) at 10uM” value is -26.2%.

Regarding `Nn1c(SCCOc2ccccc2)nnc1-c1cccnc1`, the “hERG current change (%, negative = inhibition) at 10uM” value amounted to 12.9%.

On to `COc1ccc(S(=O)(=O)N2CCCCC2)cc1NC(=O)CCc1nc2ccccc2c(=O)[nH]1`, for which the “hERG current change (%, negative = inhibition) at 10uM” value was 0.795%.

With `COc1ccc(C(=O)Nn2cnnc2)cc1OC`, the “hERG current change (%, negative = inhibition) at 10uM” value came to 14.6%.

Consider `COC(=O)/C=C/c1ccc2c(c1)S(=O)(=O)N(Cc1ccc(OC)cc1)[C@H]2CC(=O)OC`, for which the “hERG current change (%, negative = inhibition) at 10uM” value was -24.9%.

In the case of `CC1CCCN(C(=O)COc2ccc(-c3ccccc3)cc2)C1` (centres unmarked), the “hERG current change (%, negative = inhibition) at 10uM” value is -35.5%.

As to `CCOC(=O)C1=CC(=C2C(=O)N(CC)C(=S)N(CC)C2=O)c2ccccc2O1`, the “hERG current change (%, negative = inhibition) at 10uM” value is given as 23%.

As to `COCCNC(=O)CN(C(=O)CCC(=O)Nc1cc(C)on1)c1ccccc1C`, the “hERG current change (%, negative = inhibition) at 10uM” value turned out to be 5.72%.

With `CCC(=O)N1c2ccccc2C(N(C(C)=O)c2ccccc2)CC1C` (centres unmarked), the “hERG current change (%, negative = inhibition) at 10uM” value amounted to 3.24%.

As to `CCOc1cc(/C=C2/NC(=S)NC2=O)ccc1OCc1ccc([N+](=O)[O-])cc1`, the “hERG current change (%, negative = inhibition) at 10uM” value is listed as 4.97%.

With `O=C(CCc1ccccn1)N1CCCC(Nc2cccc(F)c2)C1` (centres unmarked), the “hERG current change (%, negative = inhibition) at 10uM” value was -10.3%.

For the molecule `O=C(CSc1n[nH]c(=O)[nH]c1=O)c1ccc([N+](=O)[O-])cc1`, the “hERG current change (%, negative = inhibition) at 10uM” value is given as -16.7%.

Regarding `CC(C)(O)C#Cc1ccc(C(=O)NCc2ccccc2)s1`, the “hERG current change (%, negative = inhibition) at 10uM” value was -12.1%.

As for `CC1(C)Cc2nc(Cl)c(C(=O)O)cc2CO1`, the “hERG current change (%, negative = inhibition) at 10uM” value is listed as 16.6%.

For the molecule `CCOC(=O)C1CCN(CC(=O)Nc2ccc(S(=O)(=O)N3CCC(C)CC3)cc2)CC1`, the “hERG current change (%, negative = inhibition) at 10uM” value is -16.6%.

`Cc1cc(C)cc(C(=O)N2CCN=C2SCc2ccc([N+](=O)[O-])cc2)c1`: the “hERG current change (%, negative = inhibition) at 10uM” value is on record as -23.5%.

For the molecule `O=c1[nH]c2cc3c(cc2cc1CN(CCc1ccccc1)Cc1nnnn1CC1CCCO1)OCO3` (centres unmarked), the “hERG current change (%, negative = inhibition) at 10uM” value is listed as -4.91%.

For `COc1ccc(NC(=O)C2=CC(c3ccc(C)cc3)=NS(=O)(=O)N2C)cc1`, the “hERG current change (%, negative = inhibition) at 10uM” value is given as -5.29%.

Turning to `COc1ccc(/C=N/NC(=O)c2ccncc2)cc1CN1CCN(c2ccc(F)cc2)CC1`, the “hERG current change (%, negative = inhibition) at 10uM” value was -77%.

`CCSc1nnc(NC(=O)C(Cc2ccccc2)n2cccc2)s1` (centres unmarked): the “hERG current change (%, negative = inhibition) at 10uM” value is on record as 1.31%.
